The results in this text go back to the supplement of paper PMC8007513.

The assay has as its system Trichoderma virens ATCC 9645. Description: growth yield (OD600) with compound + IPBC relative to untreated control; higher = less growth inhibition. The note with it: compound concentration: 100 uM, IPBC concentration: 200 ng/ml. The procedure, abridged: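 Growth appears as means of duplicate screens, relative to the control containing neither agent. To obtain it, OD600 was read on a BioTek EL800 at 40 h and 72 h. The cultures were 100 μl aliquots in 96-well plates at 30 °C, holding Trichoderma virens ATCC 9645 spores at 15,000 spores ml^−1 in potato dextrose broth, library compounds at 100 μM final, and, in some wells, a biocide at 200 ng ml^−1.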

Where a name gives a salt, the structure may show the parent alone. ± gives the standard error. Screen size: about 1,300 compounds; about 130 (10%) showed an effect of 50% or more. This is a selection; strong and weak results do not stand in their true shares.

Take `Nc1ccc(S(N)(=O)=O)cc1` [Sulfanilamide] + CCCCNC(=O)OCC#CI [3-iodo-2-propynyl butylcarbamate (IPBC)]: the growth yield by setting is: (40 h) 104 ± 9.4%; (72 h) 104 ± 8.8%.
For the compound `CC(CCc1ccc(O)cc1)NCCc1ccc(O)c(O)c1` (stereo not drawn) [Dobutamine hydrochloride] + CCCCNC(=O)OCC#CI [3-iodo-2-propynyl butylcarbamate (IPBC)], the growth yield runs as follows: (40 h) 101 ± 4.9%; (72 h) 98.4 ± 4.4%.
The matching figures for `CNCC[C@@H](Oc1cccc2ccccc12)c1cccs1` [(R)-Duloxetine hydrochloride] + CCCCNC(=O)OCC#CI [3-iodo-2-propynyl butylcarbamate (IPBC)]: 61.6 ± 3.8% and 90.3 ± 0.1%.
Take `O=C(NCC1CCCCN1)c1cc(OCC(F)(F)F)ccc1OCC(F)(F)F` (stereo not drawn) [Flecainide acetate] + CCCCNC(=O)OCC#CI [3-iodo-2-propynyl butylcarbamate (IPBC)]: the growth yield by setting is: (40 h) 94.7 ± 4.8%; (72 h) 99.3 ± 2%.
As to `CC(C)[C@H]1CC[C@H](C(=O)N[C@H](Cc2ccccc2)C(=O)O)CC1` [Nateglinide] + CCCCNC(=O)OCC#CI [3-iodo-2-propynyl butylcarbamate (IPBC)], the growth yield (40 h) is 83.5 ± 2.5% and the growth yield (72 h) is 90.7 ± 1.1%.
For `COc1ccccc1OCCNCC(O)COc1cccc2[nH]c3ccccc3c12` (stereo not drawn) [Carvedilol] + CCCCNC(=O)OCC#CI [3-iodo-2-propynyl butylcarbamate (IPBC)], the growth yield is, setting by setting: (40 h) 87.05 ± 0.64%; (72 h) 123 ± 5.9%.
The matching figures for `CC(C)c1nc(CN(C)C(=O)N[C@H](C(=O)N[C@@H](Cc2ccccc2)C[C@H](O)[C@H](Cc2ccccc2)NC(=O)OCc2cncs2)C(C)C)cs1` [Ritonavir] + CCCCNC(=O)OCC#CI [3-iodo-2-propynyl butylcarbamate (IPBC)]: 119 ± 1.6% and 119 ± 1.5%.
As for `COc1cc(N)c(Cl)cc1C(=O)NC1CCN(Cc2ccccc2)CC1` [Clebopride maleate] + CCCCNC(=O)OCC#CI [3-iodo-2-propynyl butylcarbamate (IPBC)], the growth yield by setting is: (40 h) 82.8 ± 6.2%; (72 h) 93.3 ± 6.3%.
`CCN1CCCC1CNC(=O)c1cc(S(=O)(=O)CC)c(N)cc1OC` (stereo not drawn) [Amisulpride] + CCCCNC(=O)OCC#CI [3-iodo-2-propynyl butylcarbamate (IPBC)]: the growth yield came to 78.8 ± 2.2% (40 h) and 84.3 ± 1.5% (72 h).
For `Nc1nc(N)nc(-c2cc(Cl)ccc2Cl)n1` [Irsogladine maleate] + CCCCNC(=O)OCC#CI [3-iodo-2-propynyl butylcarbamate (IPBC)], the growth yield runs as follows: (40 h) 88.8 ± 2.1%; (72 h) 89.6 ± 1.1%.
`CC(CN1c2ccccc2Sc2ccccc21)N(C)C` (stereo not drawn) [Promethazine hydrochloride] + CCCCNC(=O)OCC#CI [3-iodo-2-propynyl butylcarbamate (IPBC)]: the growth yield (40 h) stood at 78.2 ± 1.9% and the growth yield (72 h) worked out at 94.3 ± 4.1%.
On the same counts, the results for `NS(=O)(=O)c1cc2c(cc1C(F)(F)F)NC(Cc1ccccc1)NS2(=O)=O` (stereo not drawn) [Bendroflumethiazide] + CCCCNC(=O)OCC#CI [3-iodo-2-propynyl butylcarbamate (IPBC)] are 99.1 ± 11% and 101 ± 11%.
Turning to `O=C(c1ccc(OCCN2CCCCC2)cc1)c1c(-c2ccc(O)cc2)sc2cc(O)ccc12` [Raloxifene hydrochloride] + CCCCNC(=O)OCC#CI [3-iodo-2-propynyl butylcarbamate (IPBC)], the growth yield came to 64.2% (40 h) and 116 ± 18% (72 h).
`COc1cc2c(c(OC)c1OC)-c1ccc(OC)c(=O)cc1[C@@H](NC(C)=O)CC2` [Colchicine] + CCCCNC(=O)OCC#CI [3-iodo-2-propynyl butylcarbamate (IPBC)]: the growth yield is 88.5 ± 6.8% (40 h) and 92.9 ± 1.7% (72 h).
On to `CCn1cc(C(=O)O)c(=O)c2cc(F)c(N3CCNCC3)cc21` [Norfloxacin] + CCCCNC(=O)OCC#CI [3-iodo-2-propynyl butylcarbamate (IPBC)], for which the growth yield runs as follows: (40 h) 96.3 ± 3.5%; (72 h) 96.7 ± 1.7%.
Turning to `COC1=CC(=O)C[C@@H](C)[C@]12Oc1c(Cl)c(OC)cc(OC)c1C2=O` [Griseofulvin] + CCCCNC(=O)OCC#CI [3-iodo-2-propynyl butylcarbamate (IPBC)], the growth yield (40 h) is 48.8 ± 3.6%.
With `COc1cc(N)c(Cl)cc1C(=O)NC1CCN(CCCOc2ccc(F)cc2)CC1OC` (stereo not drawn) [Cisapride] + CCCCNC(=O)OCC#CI [3-iodo-2-propynyl butylcarbamate (IPBC)], the growth yield amounted to 76.24 ± 0.32% (40 h) and 92.7 ± 1.7% (72 h).
As to `CN(C)CCC(c1ccc(Cl)cc1)c1ccccn1` (stereo not drawn) [Chlorpheniramine maleate] + CCCCNC(=O)OCC#CI [3-iodo-2-propynyl butylcarbamate (IPBC)], the growth yield is 80.4 ± 1.6% (40 h) and 90.7 ± 3.5% (72 h).
For `c1ccc2c(c1)OCC(C1=NCCN1)O2` (stereo not drawn) [Idazoxan hydrochloride] + CCCCNC(=O)OCC#CI [3-iodo-2-propynyl butylcarbamate (IPBC)], the growth yield reads like this: (40 h) 88.633 ± 1e-14%; (72 h) 94.8 ± 2.5%.
For the compound `CCCC(CCC)C(=O)O` [Valproic acid] + CCCCNC(=O)OCC#CI [3-iodo-2-propynyl butylcarbamate (IPBC)], the growth yield worked out at 84.3 ± 3.6% (40 h) and 93.7 ± 1.6% (72 h).
Consider `CN(C)CCCC1(c2ccc(F)cc2)OCc2cc(C#N)ccc21` (stereo not drawn) [Citalopram Hydrobromide] + CCCCNC(=O)OCC#CI [3-iodo-2-propynyl butylcarbamate (IPBC)], for which the growth yield reads like this: (40 h) 84.2 ± 7.6%; (72 h) 92.3 ± 5.9%.
Regarding `CCCCCC[C@H]1C(=O)O[C@H](C)[C@H](NC(=O)c2cccc(NC=O)c2O)C(=O)O[C@@H](C)[C@@H]1OC(=O)CC(C)C` [Antimycin A] + CCCCNC(=O)OCC#CI [3-iodo-2-propynyl butylcarbamate (IPBC)], the growth yield reads like this: (40 h) 17.6 ± 1.1%; (72 h) 42.9 ± 2.4%.
The matching figures for `Cc1onc(-c2ccccc2)c1C(=O)N[C@@H]1C(=O)N2[C@@H]1SC(C)(C)[C@@H]2C(=O)O` [Oxacillin sodium] + CCCCNC(=O)OCC#CI [3-iodo-2-propynyl butylcarbamate (IPBC)]: 109 ± 1.6% and 107 ± 2.1%.
On to `Cn1c(=O)c2c(ncn2C)n(C)c1=O` [Caffeine] + CCCCNC(=O)OCC#CI [3-iodo-2-propynyl butylcarbamate (IPBC)], for which the growth yield amounted to 93.1 ± 10% (40 h) and 92.9 ± 5.7% (72 h).
On to `CC[N+]1(C)CCCC(OC(=O)C(O)(c2ccccc2)c2ccccc2)C1` (stereo not drawn) [Pipenzolate bromide] + CCCCNC(=O)OCC#CI [3-iodo-2-propynyl butylcarbamate (IPBC)], for which the growth yield runs as follows: (40 h) 98.8 ± 7.6%; (72 h) 94.9 ± 5.3%.
On to `CC(C)(C)NCC(O)c1ccc(O)c(CO)c1` (stereo not drawn) [Salbutamol] + CCCCNC(=O)OCC#CI [3-iodo-2-propynyl butylcarbamate (IPBC)], for which the growth yield is, setting by setting: (40 h) 85.93 ± 0.16%; (72 h) 93 ± 0.94%.
For the compound `O=C(O[C@@H]1C[C@@H]2C[C@H]3C[C@H](C1)N2CC3=O)c1c[nH]c2ccccc12` [Dolasetron mesilate] + CCCCNC(=O)OCC#CI [3-iodo-2-propynyl butylcarbamate (IPBC)], the growth yield is 80.06 ± 0.64% (40 h) and 95.6 ± 2.3% (72 h).
In the case of `COC(=O)Nc1nc2cc(C(=O)c3ccc(F)cc3)ccc2[nH]1` [Flubendazol] + CCCCNC(=O)OCC#CI [3-iodo-2-propynyl butylcarbamate (IPBC)], the growth yield (40 h) turned out to be 86.4 ± 5.4% and the growth yield (72 h) is 91.1 ± 4.9%.
On the same counts, the results for `C[C@]12CCC(=O)C=C1C=C[C@@H]1[C@@H]2CC[C@@]2(C)[C@H]1CC[C@@]21CCC(=O)O1` [Canrenone] + CCCCNC(=O)OCC#CI [3-iodo-2-propynyl butylcarbamate (IPBC)] are 54.6 ± 2.9% and 83.5 ± 1.5%.
As to `NC(=O)OCC(O)COc1ccc(Cl)cc1` (stereo not drawn) [Chlorphensin carbamate] + CCCCNC(=O)OCC#CI [3-iodo-2-propynyl butylcarbamate (IPBC)], the growth yield (40 h) was 92.3 ± 1.4% and the growth yield (72 h) was found to be 100 ± 2.5%.
As to `COC(=O)CCc1ccc(OCC(O)CNC(C)C)cc1` (stereo not drawn) [Esmolol hydrochloride] + CCCCNC(=O)OCC#CI [3-iodo-2-propynyl butylcarbamate (IPBC)], the growth yield by setting is: (40 h) 91.8 ± 4.8%; (72 h) 93.9 ± 3%.
On the same counts, the results for `CN1C(C(=O)Nc2ccccn2)=C(O)c2ccccc2S1(=O)=O` [Piroxicam] + CCCCNC(=O)OCC#CI [3-iodo-2-propynyl butylcarbamate (IPBC)] are 82.3 ± 1.3% and 99.4 ± 4.4%.
On the same counts, the results for `COCCOC(=O)C1=C(C)NC(C)=C(C(=O)OC(C)C)C1c1cccc([N+](=O)[O-])c1` (stereo not drawn) [Nimodipine] + CCCCNC(=O)OCC#CI [3-iodo-2-propynyl butylcarbamate (IPBC)] are 79.7 ± 7.9% and 87.3 ± 1.3%.
`CNCCC=C1c2ccccc2C=Cc2ccccc21` [Norcyclobenzaprine] + CCCCNC(=O)OCC#CI [3-iodo-2-propynyl butylcarbamate (IPBC)]: the growth yield turned out to be 65.28 ± 0.48% (40 h) and 86.3 ± 1.6% (72 h).
`Cc1ccc(C)c(OCCCC(C)(C)C(=O)O)c1` [Gemfibrozil] + CCCCNC(=O)OCC#CI [3-iodo-2-propynyl butylcarbamate (IPBC)]: the growth yield is, setting by setting: (40 h) 66.4 ± 1.3%; (72 h) 90 ± 1.3%.
Regarding `O=C(O)C[C@H](O)C[C@H](O)/C=C/c1c(C2CC2)nc2ccccc2c1-c1ccc(F)cc1` [Pitavastatin calcium] + CCCCNC(=O)OCC#CI [3-iodo-2-propynyl butylcarbamate (IPBC)], the growth yield is, setting by setting: (40 h) 14 ± 2.2%; (72 h) 39.4 ± 3.4%.
`O=C(CCCN1CCC(O)(c2ccc(Cl)cc2)CC1)c1ccc(F)cc1` [Haloperidol] + CCCCNC(=O)OCC#CI [3-iodo-2-propynyl butylcarbamate (IPBC)]: the growth yield (40 h) was 10.2 ± 1.9%.
Turning to `COc1ccc2c(c1)C(=O)N(CCc1ccc(S(=O)(=O)NC(=O)NC3CCCCC3)cc1)C(=O)C2(C)C` [Gliquidone] + CCCCNC(=O)OCC#CI [3-iodo-2-propynyl butylcarbamate (IPBC)], the growth yield stood at 115 ± 3% (40 h) and 111 ± 2.5% (72 h).
On the same counts, the results for `NS(=O)(=O)Cc1noc2ccccc12` [Zonisamide] + CCCCNC(=O)OCC#CI [3-iodo-2-propynyl butylcarbamate (IPBC)] are 91.49 ± 0.64% and 92.7 ± 2.7%.
Consider `Cc1cn([C@H]2C[C@H](N=[N+]=[N-])[C@@H](CO)O2)c(=O)[nH]c1=O` [Zidovudine, AZT] + CCCCNC(=O)OCC#CI [3-iodo-2-propynyl butylcarbamate (IPBC)], for which the growth yield is 91.3 ± 6.5% (40 h) and 96.4 ± 3.5% (72 h).
